In the RNAGym collection of RNA variant scans (doi:10.1093/nar/gkz1192):
Read counts are not given, so values of variants with three or more changes are uncertain.

B1: CPEB3 Ribozyme (parent)
chain: UAACAGGGGGCCACAGCAGAAGCGUUCACGUCGCAGCCCCUGUCAGAUUCUGGUGAAUCUGCGAAUUCUGCUGUAUAUCUC

Variants of: B1
Assay: self-cleavage, relative activity (ratio to wild type); higher = more cleavage; in vitro, sequencing
Method in brief: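 Barcoded CPEB3 ribozyme mutants, produced by rounds of error-prone PCR, self-cleaved while being transcribed with T7 RNA polymerase for 5 hours at 37°C and during a subsequent 15 min DNase I step before EDTA was added. Sequencing of template-switched cDNA on Illumina gave cleaved and total reads, and DNA sequencing assigned barcodes to variants. Each variant's relative activity is its cleaved/total read fraction divided by the unmutated ribozyme's fraction, averaged across three batches. A variant needed a minimum of 5 reads.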

Row | Variant | self-cleavage
1 | UAACAGGGGGCCACAGCAGGAGCGUUCACGUCGCUGCCCCUGUCAGAUUCCGGUGAAUCUGCAAAUUCUGCUGUAUAUCUC [A20G A35U U51C G63A] | 0.28
2 | UAACAGGGGGCCACAGCAGGAGCGUUCACGUCGCUGCCCCUGUCAGAUUCUGGUGAACCUGCGAAUUCUGCUGCAUAUCUC [A20G A35U U58C U74C] | 0.34
3 | UAACAGGGGGCCACAGCAGGAGCGUUCACGUCGCUGCCCCUGUCAGAUUCUGGUGAAUCUGCGAAUUCUGCAGUAUAUCUC [A20G A35U U72A] | 0.13
4 | UAACAGGGGGCCACAGCAGGAGCGUUCACGUCGCAGCCCCUGUCCGGUUCUGGUGAAUCUGCGAAUUCUGCUGUAUAUCUC [A20G A45C A47G] | 0.27
5 | UAACAGGGGGCCACAGCAGGAGCGUUCACGUCGCAGCCCCUGUCCGAUUCUGGCGAAUCUGCGAAUUCUGCUGUAUAUCUC [A20G A45C U54C] | 0.17
6 | UAACAGGGGGCCACAGCAGGAGCGUUCACGUCGCAGCCCCUGUCCGAUUCUGGUGAAUCUGCGAAUUCUGCAGUAUAUCUC [A20G A45C U72A] | 0.3
7 | UAACAGGGGGCCACAGCAGGAGCGUUCACGUCGCAGCCCCUGUCGGUUUCUGGUGAAUCUGCGAAUUCUGCUGUAUAUCUC [A20G A45G A47U] | 0.34
8 | UAACAGGGGGCCACAGCAGGAGCGUUCACGUCGCAGCCCCUGUCGGAUUCUGGUGAAUCUGCGGAUUCUGCUGUAUACCUC [A20G A45G A64G U78C] | 0.38
9 | UAACAGGGGGCCACAGCAGGAGCGUUCACGUCGCAGCCCCUGUCGGAUUCUGGUGAAUCUGCGUAUUCUGCUGUAUAUCUC [A20G A45G A64U] | 0.26
10 | UAACAGGGGGCCACAGCAGGAGCGUUCACGUCGCAGCCCCUGUCGGAUUCUGGUGAAUCUGCGAGUUCUGCUGUAUAUCUC [A20G A45G A65G] | 0.32
11 | UAACAGGGGGCCACAGCAGGAGCGUUCACGUCGCAGCCCCUGUCGGAUACUGGUGAACCUGCGAAUUCUGCUGUAUAUCCC [A20G A45G U49A U58C U80C] | 0.1
12 | UAACAGGGGGCCACAGCAGGAGCGUUCACGUCGCAGCCCCUGUCGGAUUCAGGUGAAUCUGCGAAUUCUGCUGUAUAUCUC [A20G A45G U51A] | 0.72
13 | UAACAGGGGGCCACAGCAGGAGCGUUCACGUCGCAGCCCCUGUCGGAUUCUGGUGAACCUGCGAAUUCCGCUGUAUAUCUC [A20G A45G U58C U69C] | 0.5
14 | UAACAGGGGGCCACAGCAGGAGCGUUCACGUCGCAGCCCCUGUCGGAUUCUGGUGAAUCCGCGAACCCUGCUGUAUGUCUC [A20G A45G U60C U66C U67C A77G] | 0.24
15 | UAACAGGGGGCCACAGCAGGAGCGUUCACGUCGCAGCCCCUGUCGGAUUCUGGUGAAUCUGCGAAAUCUGCUGUACAUCUC [A20G A45G U66A U76C] | 0.37
16 | UAACAGGGGGCCACAGCAGGAGCGUUCACGUCGCAGCCCCUGUCGGAUUCUGGUGAAUCUGCGAAUUCUGCUGUAUACCUC [A20G A45G U78C] | 0.48
17 | UAACAGGGGGCCACAGCAGGAGCGUUCACGUCGCAGCCCCUGUCUGAUUCUGGUGUAUCUGCGAAUUCUGCAGUAUAUCUC [A20G A45U A56U U72A] | 0.15

Row | Variant | self-cleavage
18 | UAACAGGGGGCCACAGCAGGAGCGUUCACGUCGCAGCCCCUGUCUGACUCUGGUGAAUCUGCGAAUUCUGCUGUAUAUCUC [A20G A45U U48C] | 0.22
19 | UAACAGGGGGCCACAGCAGGAGCGUUCACGUCGCAGCCCCUGUCUGAUUCUGGCGAAUCUCCGAAUUCUGCUGAAUAUCUC [A20G A45U U54C G61C U74A] | 0.19
20 | UAACAGGGGGCCACAGCAGGAGCGUUCACGUCGCAGCCCCUGUCUGAUUCUGGUGAAUCUGCGAAUUCCGCUGUAAAUCUC [A20G A45U U69C U76A] | 0.29
21 | UAACAGGGGGCCACAGCAGGAGCGUUCACGUCGCAGCCCCUGUCAGGUUCUGGUGAAUCUGUGAAUUCUGCUAUAUAUCAC [A20G A47G C62U G73A U80A] | 0.22
22 | UAACAGGGGGCCACAGCAGGAGCGUUCACGUCGCAGCCCCUGUCAGGUUCUGGUGAAUCGGCAAAUUCUGCUGCAUAUCUC [A20G A47G U60G G63A U74C] | 0.17
23 | UAACAGGGGGCCACAGCAGGAGCGUUCACGUCGCAGCCCCUGUCAGGUUCUGGUGAAUCUGCGAAUUCUGCUGUAAAUCUC [A20G A47G U76A] | 0.44
24 | UAACAGGGGGCCACAGCAGGAGCGUUCACGUCGCAGCCCCUGUCAGGUUCUGGUGAAUCUGCGAAUUCUGCUGUAUAUCCC [A20G A47G U80C] | 1.08
25 | UAACAGGGGGCCACAGCAGGAGCGUUCACGUCGCAGCCCCUGUCAGUUUCUGGUGGAUCUGCGAAUUCUGCUGUAUAUCUC [A20G A47U A56G] | 0.21
26 | UAACAGGGGGCCACAGCAGGAGCGUUCACGUCGCAGCCCCUGUCAGUUUCUGGUGGAUCUGCGACUUCUGCUGUAUAUCUC [A20G A47U A56G A65C] | 0.34
27 | UAACAGGGGGCCACAGCAGGAGCGUUCACGUCGCAGCCCCUGUCAGUUUCUGGAGAAUCUGCGAGUUCUGCUGUAUAUCUC [A20G A47U U54A A65G] | 0.14
28 | UAACAGGGGGCCACAGCAGGAGCGUUCACGUCGCAGCCCCUGUCAGUUUCUGGUGAAUCUGCGAAUACUGCUGUAUAUCUC [A20G A47U U67A] | 0.13
29 | UAACAGGGGGCCACAGCAGGAGCGUUCACGUCGCAGCCCCUGUCAGUUUCUGGUGAAUCUGCGAAUGCUGCUGUAUAUCUC [A20G A47U U67G] | 0.09
30 | UAACAGGGGGCCACAGCAGGAGCGUUCACGUCGCAGCCCCUGUCAGAUUCUGGUGGAUCUGCGAUUUCUGCUGUAUAUCUC [A20G A56G A65U] | 0.14
31 | UAACAGGGGGCCACAGCAGGAGCGUUCACGUCGCAGCCCCUGUCAGAUUCUGGUGGAUCUGCAAAUCCUGCUGUAUAUCUC [A20G A56G G63A U67C] | 0.5
32 | UAACAGGGGGCCACAGCAGGAGCGUUCACGUCGCAGCCCCUGUCAGAUUCUGGUGGAUCUGCGAACUCUGCUGUAUAUCUC [A20G A56G U66C] | 0.14
33 | UAACAGGGGGCCACAGCAGGAGCGUUCACGUCGCAGCCCCUGUCAGAUUCUGGUGGAUCUGCGAAUACUGCUGUAUAUCUC [A20G A56G U67A] | 0.72
34 | UAACAGGGGGCCACAGCAGGAGCGUUCACGUCGCAGCCCCUGUCAGAUUCUGGUGGAUCUGCGAAUUCCGCUGUAUAUCUC [A20G A56G U69C] | 0.26
